# Laboratory results published in PubChem BioAssay AID1461 (National Center for Advancing Translational Sciences (NCATS), 2008).
# “And” between values parts separate entries of the source, which are not always exact repeats. Equal entries are not always repeated. About 2,300 (1%) of roughly 220,000 compounds were called active. The shares of active, inactive and inconclusive entries below differ from those in the screen. Calls come from the whole dose curve; as a rule, active = well fitted inhibition curve with a large enough effect; inconclusive = small, poorly fitted or top-dose-only effect, or effect the other way; inactive = no such curve, though single readings can be large or run the other way. Where the call is inconclusive, the potency comes from a doubtful curve fit.
# Target: Neuropeptide S receptor (Homo sapiens) (UniProt Q6W5P4)
# Chain of UniProt Q6W5P4 (Q6W5P4 whole entry, looked up): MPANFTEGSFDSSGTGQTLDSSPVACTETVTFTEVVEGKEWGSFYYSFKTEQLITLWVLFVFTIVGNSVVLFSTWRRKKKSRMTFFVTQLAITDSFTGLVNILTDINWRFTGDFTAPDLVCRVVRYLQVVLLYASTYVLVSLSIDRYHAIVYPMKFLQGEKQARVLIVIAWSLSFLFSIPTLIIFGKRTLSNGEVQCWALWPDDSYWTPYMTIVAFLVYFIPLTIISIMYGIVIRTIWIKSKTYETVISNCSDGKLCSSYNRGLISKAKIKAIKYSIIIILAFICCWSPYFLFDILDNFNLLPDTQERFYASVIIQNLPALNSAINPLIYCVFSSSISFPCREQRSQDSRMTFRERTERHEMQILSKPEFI
# Experiment: qHTS Assay for Antagonists of the Neuropeptide S Receptor: cAMP Signal Transduction; note: nearly all actives have a fitted effect of over 50% in size
# Settings: CHO-NPSR cells, cAMP TR-FRET, antagonist mode; series mostly up to 38.3 µM
# Potency is the fitted concentration of half-maximal effect; tags give direction and shape of the fitted curve.
row,SMILES,Potency
1,Fc1ccc(C(c2ccc(F)cc2)N2CCN(C/C=C/c3ccccc3)CC2)cc1,"inconclusive: 3.16 µM [inhibitor, full curve, poor fit] and inconclusive: 5.01 µM [inhibitor, full curve, poor fit]"
2,CCOc1ccc(S(=O)(=O)Nc2nc3ccccc3nc2-n2ccc(=NC(=O)c3ccccc3C)cc2)cc1,"inconclusive: 25.1 µM [inhibitor, single point]"
3,CCOC(=O)CC(C)(C)/C(C)=N/Nc1ccc([N+](=O)[O-])cc1[N+](=O)[O-],inactive
4,CCOC(=O)C1CCCN(CC(=O)NC2=Nc3ccccc3N=C(C)C2c2ccccc2)C1 (stereo not given),"inconclusive: 12.6 µM [inhibitor, partial curve]"
5,Cc1sc(NC(=O)c2sc3nc4c(C)cccc4cc3c2N)c(C#N)c1C,"inconclusive: 10 µM [inhibitor, single point]"
6,Cc1cc2nc(SCC(=O)Nc3nonc3C)c3c(c2cc1C)CCCC3,active: 7.94 µM
7,COC(=O)c1nn(-c2ccc(OC)cc2)c(=O)c2c(N)sc(C)c12,inactive
8,Cc1ccsc1/C=N/n1c(-c2cc(-c3ccccc3)n[nH]2)n[nH]c1=S,"inconclusive: 10 µM [activator, partial curve]"
9,Cn1c(=O)c2c(-c3ccc(OC(F)F)cc3)cc(-c3ccccc3)nc2n(C)c1=O,"inconclusive: 10 µM [inhibitor, single point]"
10,Cc1cccc(C)c1N(CC(O)Cn1c2ccccc2c2ccccc21)S(C)(=O)=O (stereo not given),"inconclusive: 25.1 µM [inhibitor, single point]"
11,Cn1c(=O)[nH]c(=O)c2c1nc(N1CCCCCC1)n2CCCSc1nc2ccccc2o1,"inconclusive: 12.6 µM [inhibitor, single point]"
12,O=C(CSc1nc2ccccc2[nH]1)NC(=O)NCc1ccco1,"inconclusive: 10 µM [activator, single point]"
13,NC(=NCc1ccccc1)NC(=O)c1nc(Cl)c(N)nc1N,"inconclusive: 12.6 µM [inhibitor, partial curve]"
14,O=C1CC(c2cccc(Cl)c2)Cc2nc(N3CCN(c4ccccc4)CC3)ncc21 (stereo not given),"inconclusive: 12.6 µM [inhibitor, single point]"
15,CCOc1cc(CNCCc2ccc(S(N)(=O)=O)cc2)ccc1OCc1ccc(Cl)cc1,"inconclusive: 25.1 µM [inhibitor, single point]"
16,COc1cccc(C2N(c3ccc(Cl)c(Cl)c3)C(=O)C3CCCN32)c1OC (stereo not given),"inconclusive: 10 µM [inhibitor, single point]"
17,O=C(CSc1nc(-c2ccccc2F)nc2nc[nH]c12)Nc1c(Cl)cc(Cl)cc1Cl,active: 5.01 µM
18,CCc1nnc(NC(=O)c2cccc(C(=O)Nc3nnc(CC)s3)n2)s1,"inconclusive: 3.98 µM [inhibitor, full curve, poor fit]"
19,COc1ccccc1C1CC(c2ccccc2)=NN1C(=S)Nc1ccccc1 (stereo not given),inactive
20,N#CC(C#N)=C1C=CC=CN1/C(=C\c1ccco1)C(=O)c1ccc(Br)cc1,"inconclusive: 25.1 µM [inhibitor, single point]"

row,SMILES,Potency
1,O=C(Nc1ncc([N+](=O)[O-])s1)c1cccc([N+](=O)[O-])c1,active: 5.01 µM
2,CC(C)CCN(C(=S)Nc1cccc(C(F)(F)F)c1)C(C)c1ccccn1 (stereo not given),"inconclusive: 25.1 µM [inhibitor, single point]"
3,CCC(C)Nc1nc(C)nc2c1oc1ccccc12 (stereo not given),"inconclusive: 12.6 µM [inhibitor, single point]"
4,N#Cc1cnc2cc(-c3ccccc3)nn2c1N,"inconclusive: 25.1 µM [inhibitor, single point]"
5,O=C(O)c1cc(O)c2c(c1)C(=O)c1cccc(O)c1C2=O,inactive
6,COc1ccc(-c2ncncc2-c2ccc(Cl)cc2)c(O)c1,"inconclusive: 10 µM [activator, single point]"
7,Cc1cc(N)n2ncc(-c3ccc(Cl)cc3)c2n1,"inconclusive: 10 µM [activator, partial curve]"
8,COC(=O)c1c(/N=C/N(C)C)sc2c1CCN(c1ncc(C(F)(F)F)cc1Cl)C2,"inconclusive: 31.6 µM [inhibitor, single point]"
9,CCCN1CCN(CCCNC(=O)c2cc3c(=O)[nH]c4ccc(C)cc4c3s2)CC1,"inconclusive: 15.8 µM [activator, single point]"
10,CCCc1sc(N/N=C/c2ccccn2)nc1-c1ccc(F)cc1,active: 10 µM
11,O=C(CN(Cc1cccs1)C(=O)CNS(=O)(=O)c1ccc(F)cc1)NCc1ccco1,"inconclusive: 12.6 µM [inhibitor, single point]"
12,CCOC(=O)CSC1=C(C#N)C(c2ccc(F)cc2)C(C(C)=O)=C(C)N1 (stereo not given),"inconclusive: 15.8 µM [inhibitor, partial curve, poor fit]"
13,CNC(=O)/C(C#N)=C/c1c(N(Cc2ccccc2)Cc2ccccc2)nc2ccccn2c1=O,"inconclusive: 5.01 µM [inhibitor, full curve, poor fit]"
14,CN1CCC2(CC1)N=C(c1ccc(F)cc1)C(=S)N2C(=O)c1ccc(C(C)(C)C)cc1,"inconclusive: 12.6 µM [inhibitor, single point]"
15,CCCCOC(=O)c1ccc(NC(=S)N2CCN(c3ncc4c(=O)c(C(=O)O)cn(CC)c4n3)CC2)cc1,"inconclusive: 5.01 µM [activator, partial curve]"
16,Cc1ccc(-c2csc3nnc(SCC(=O)Nc4nsc(-c5ccccc5)n4)n23)cc1,"inconclusive: 12.6 µM [inhibitor, partial curve]"
17,CCOC(=O)COc1ccc(/C=C/[N+](=O)[O-])c(OCC(=O)OCC)c1,"inconclusive: 10 µM [inhibitor, single point]"
18,NS(=O)(=O)c1ccc(N2N=C(c3ccccc3)CC2c2ccccc2)cc1 (stereo not given),inactive
19,CCOc1cc(/C=N\Nc2ncc(F)c(N3CCOCC3)n2)ccc1Oc1nc(Cl)ncc1F,"inconclusive: 25.1 µM [inhibitor, single point]"
20,COc1cc(/C=C(\NC(=O)c2ccccc2)C(=O)Nc2cccc(O)c2)c([N+](=O)[O-])cc1OC,"inconclusive: 12.6 µM [inhibitor, partial curve]"
